The whole screen tested about 420,000 compounds, of which about 64,000 (15%) were called active. Inconclusive means that the source gave no clear call. Such entries were picked first, then a sample of the others. The call rests on the fitted dose curve; in most records, active means well fitted inhibition curve with a large enough effect; inconclusive means small, poorly fitted or top-dose-only effect; inactive means flat fitted curve, though single readings scatter. No potency is given beside an inconclusive call; the fits are too rough.
Assay: qHTS for Inhibitors of human tyrosyl-DNA phosphodiesterase 1 (TDP1): qHTS in cells in absence of CPT; further: nearly all actives have a fitted effect of over 55% in size
Settings: DT40 Tdp1-/- hTDP1 cells, no CPT, ATP luminescence, 48 h; activity change, negative = growth inhibition: at 46.2 µM (top of the series) unless noted
Method in brief: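 Camptothecin absent (DMSO only). Human TDP1-complemented DT40 knockout cells, 400 cells/well, 37 °C for minimum 48 hr; ATP measured via CellTiter-Glo, 30 min dark incubation, luminescence.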
In the case of `Cn1cc(C(=O)NP(=O)(N2CCOCC2)N2CCOCC2)c2ccccc21`, the Potency is reported as “inactive”.
For `Fc1ccc2c(c1)nnn2C1CCN(Cc2c(Cl)cccc2Cl)CC1`, the Potency was active: 18.4 µM.
With `COc1cccc(NP(=O)(Oc2ccc(Cl)cc2)Oc2ccc(Cl)cc2)c1` the Potency was active: 23.1 µM.
In the case of `COC(=O)C1=C(c2ccc(OC(F)(F)F)cc2)C[C@@H]2CC[C@H]1N2C(=O)NCCCOC(C)C`, the Potency is reported as inconclusive [inhibitor, single point].
For `CCc1ccc(OCC(=O)N2CCN(Cc3ccc4c(c3)OCO4)CC2)cc1`, the Potency was inconclusive [inhibitor, partial curve].
In the case of `C=CCn1c(O)c(/C=C2/C=c3ccccc3=N2)c(=O)[nH]c1=S`, the Potency is reported as inconclusive [inhibitor, single point].
In the case of `O=C(/C=C/c1ccc2c(c1)OCO2)c1c(O)n(CCC2=CCCCC2)c(=O)[nH]c1=O`, the Potency is reported as active: 5.8 µM.
In the case of `CCCOC(C(=O)OC1CCN(C)CC1)(c1ccccc1)c1ccccc1`, the Potency is reported as active: 11.9 µM.
For `Cc1ccc(-c2cc(-c3ccc(C)cc3)[n+](-c3ccc(C(=O)[O-])cc3)c(-c3ccc(C)cc3)c2)cc1`, the Potency was inconclusive [inhibitor, single point].
For `COc1cccc(N2CCN(C(=O)C3CCCN(S(=O)(=O)c4ccc5c(c4)oc(=O)n5C)C3)CC2)c1` (stereo not drawn), the Potency was active: 14.6 µM.
With `Cc1ccccc1CS(=O)(=O)Cc1ccc(C(=O)N2CCC3(CC2)OCCO3)o1` the Potency was “inactive”.
With `CCCCC(=O)N/N=C/c1c(O)n(CCc2ccccc2)c(=O)[nH]c1=O` the Potency was inconclusive [inhibitor, single point].
In the case of `Cc1ccc(N2C(=O)NC(=O)/C(=C/c3ccoc3)C2=O)cc1`, the activity change, negative = growth inhibition is reported as inconclusive: -31.6% [inhibitor].
For `Cc1cc(C)n(-c2nc3nonc3nc2Nc2cccc(C)c2C)n1`, the Potency was inconclusive [inhibitor, single point].
For `CN(C)c1ccc(/C=C/C=C/c2sc3ccccc3[n+]2C)cc1`, the Potency was active: 0.13 µM.
In the case of `CCOc1cc2c(cc1OCC)-n1cccc1C(c1ccccc1O)NC2` (stereo not drawn), the Potency is reported as inconclusive [inhibitor, single point].
In the case of `CCOC(=O)c1c(C)n(Cc2ccco2)c2c1cc(O)c1ccccc12`, the Potency is reported as inconclusive [inhibitor, single point].
In the case of `O=[N+]([O-])c1ccc(N2CCOCC2)c2cccnc12`, the Potency is reported as inconclusive [inhibitor, single point].
In the case of `O=c1[nH]c(=S)n(C2CC2)c(O)c1/C=N/Nc1cccc2ccccc12`, the Potency is reported as inconclusive [inhibitor, single point].
With `O=C(c1cc(F)ccc1F)C1CCCN(Cc2cc(Cl)ccc2O)C1` (stereo not drawn) the Potency was inconclusive [inhibitor, single point].
For `C[C@H]1COC(=O)[C@@H](Cc2ccc(F)cc2)CC/C=C/C[C@@H](CC(=O)N(CCO)Cc2ccccc2)C(=O)N1`, the Potency was active: 23.1 µM.
For `COc1ccc(NC(=O)Nc2ccc3c(c2)C(=O)N([C@H](C)CO)C[C@H](C)[C@@H](CN(C)S(=O)(=O)c2ccc(F)cc2)O3)cc1`, the Potency was inconclusive [inhibitor, single point].
In the case of `O=C1C(c2ccccc2)=C(N2CC2)c2ccccc21`, the Potency is reported as inconclusive [inhibitor, single point].
With `CC1CN1P1(=O)OCC(C)([N+](=O)[O-])CO1` (stereo not drawn) the Potency was inconclusive [inhibitor, single point].
For `CCOP(=O)(OCC)C(NC(=O)c1ccccc1C)C(Cl)(Cl)Cl` (stereo not drawn), the Potency was “inactive”.
In the case of `COc1ccccc1N1C(=O)NC(=O)/C(=C/c2ccc3c4c(cccc24)CC3)C1=O`, the Potency is reported as inconclusive [inhibitor, single point].
In the case of `COc1ccc(Oc2cc(NC(=O)c3nn(C)cc3[N+](=O)[O-])cc([N+](=O)[O-])c2)cc1`, the Potency is reported as “inactive”.
For `CC(=O)C1(c2ccccc2)CCN(C(=O)C2CCC(=O)N(CCc3cccc(F)c3)C2)CC1` (stereo not drawn), the Potency was active: 23.1 µM.
For `O=C(Cc1cc(=O)oc2cc(O)ccc12)NN=Cc1ccc(N(CCCl)CCCl)cc1`, the Potency was inconclusive [inhibitor, single point].
With `CCc1ccc([C@H]2[C@@H]3C(=O)C[C@@H]4C(=O)N(Cc5ccccc5)C(=O)[C@@H]4[C@@H]3CN2S(=O)(=O)c2ccc(C)cc2)cc1` the Potency was inconclusive [inhibitor, single point].
With `Cc1cc(N2CCCCC2)nc2ccc(NC(=O)CCC(=O)N3CCN(c4cccc(Cl)c4)CC3)cc12` the Potency was active: 3.66 µM.
For `COC(=O)C1=C(c2ccc(F)cc2OCc2ccccc2)C[C@@H]2CC[C@H]1N2C(=O)NCc1ccccc1`, the Potency was inconclusive [inhibitor, single point].
For `C=CCn1c(O)c(C(C)=Nc2cc(OC)ccc2OC)c(=O)[nH]c1=O`, the Potency was inconclusive [inhibitor, partial curve].
For `CCOc1ccc(-n2c(O)c(C=Nc3ccc(N(CC)CC)cc3)c(=O)[nH]c2=O)cc1`, the Potency was inconclusive [inhibitor, partial curve, poor fit].
For `C[C@@H]1CN(CCCn2c3ccccc3c3ccccc32)C[C@H](C)N1`, the Potency was active: 8.41 µM.
For `COc1ccc(-n2nnnc2C(CCSC)N2CCC3(CC2)C(=O)NCN3c2ccccc2)cc1` (stereo not drawn), the Potency was inconclusive [inhibitor, single point].
In the case of `CC(C)c1c(C(=O)NC(c2cccnc2)C(F)(F)F)cnn1-c1nccc(-c2cccs2)n1` (stereo not drawn), the Potency is reported as active: 13 µM.
For `CC1(CCO)C(=O)NC(=S)NC1=O`, the Potency was “inactive”.
With `CCN1C(=O)c2ccccc2Sc2ccc(NC(=O)Nc3ccc(Br)c(C)c3)cc21` the Potency was inconclusive [inhibitor, single point].
With `COc1ccc(Nc2nc(N)nc(CSc3nc4ccccc4s3)n2)cc1` the Potency was active: 16.4 µM.
In the case of `Nc1cc(Cl)cc(C(=O)O)c1Cl`, the Potency is reported as “inactive”.
For `COC(=O)C1=C(C)NC(COC(N)=O)=C(C(=O)OC(C)C)C1c1cccc(Cl)c1Cl` (stereo not drawn), the Potency was active: 33.5 µM.
In the case of `C/C(=C\[C@@H](N)C(=O)O)CP(=O)(O)O`, the Potency is reported as “inactive”.
On the % scale 0 is the no-effect control and ±100 the full control effect; potency means the concentration at half of the fitted maximal effect; tags describe the fitted curve by direction and shape.
